Over roughly 110,000 compounds, “z-score” has its median near -0.1; the highest 2% begin near 2. The list shows a part of the results.

The target in the assay is Metabotropic glutamate receptor 8 (Rattus norvegicus) (UniProt P70579). As to the kind of experiment: rat mGluR8 modulators via GIRK flux, primary screen, cell-based, thallium flux, HTS (AID 488969). The note with it: HEK293 rat mGluR8, GIRK (G protein-gated inwardly rectifying potassium channel) thallium flux, FluoZin2; at 10 µM; stronger effect = higher value; submaximal glutamate (EC20) added with thallium.
UniProt P70579, sequence (P70579 whole entry, looked up): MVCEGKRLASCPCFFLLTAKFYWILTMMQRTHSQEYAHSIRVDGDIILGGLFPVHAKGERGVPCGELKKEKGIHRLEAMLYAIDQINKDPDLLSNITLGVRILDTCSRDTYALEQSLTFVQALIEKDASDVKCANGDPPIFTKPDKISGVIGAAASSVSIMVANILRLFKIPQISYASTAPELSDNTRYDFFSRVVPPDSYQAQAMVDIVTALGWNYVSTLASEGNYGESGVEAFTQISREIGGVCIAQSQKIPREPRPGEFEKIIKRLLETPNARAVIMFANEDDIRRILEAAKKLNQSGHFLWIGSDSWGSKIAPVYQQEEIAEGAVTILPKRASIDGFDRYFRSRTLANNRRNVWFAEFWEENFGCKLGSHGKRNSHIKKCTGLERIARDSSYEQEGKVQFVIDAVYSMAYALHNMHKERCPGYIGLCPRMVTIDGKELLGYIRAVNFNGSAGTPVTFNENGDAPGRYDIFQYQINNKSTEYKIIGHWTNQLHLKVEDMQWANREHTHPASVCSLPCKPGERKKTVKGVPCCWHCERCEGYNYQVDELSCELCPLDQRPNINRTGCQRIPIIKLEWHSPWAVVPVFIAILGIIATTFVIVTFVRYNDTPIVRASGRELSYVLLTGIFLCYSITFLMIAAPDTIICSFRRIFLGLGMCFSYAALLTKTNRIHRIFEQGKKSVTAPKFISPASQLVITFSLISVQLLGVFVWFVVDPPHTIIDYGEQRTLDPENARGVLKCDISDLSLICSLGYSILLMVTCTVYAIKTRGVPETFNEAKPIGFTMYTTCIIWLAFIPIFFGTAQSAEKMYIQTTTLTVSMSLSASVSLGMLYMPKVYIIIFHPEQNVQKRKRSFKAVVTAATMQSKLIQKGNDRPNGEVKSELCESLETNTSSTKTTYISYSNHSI
Consider `COC(=O)CNC(=O)C(C)(C)Oc1ccc(Cl)cc1`, for which the z-score is -0.255. Next, `Cc1cc(N2CCOCC2)cc(C)[n+]1[O-]`: 0.665; `COc1cccc(N2CC34C=CC(O3)C(C(=O)O)C4C2=O)c1` (stereo unspecified): 0.357. The result for `Cc1cc(C)nc(NC(=O)c2ccc(OC(C)C)cc2)n1` reads 0.289; that for `C#CCN1C(=O)C2C(C(=O)NC)C3C=CC2(O3)C1C(=O)NCc1ccc(OC)cc1` (stereo unspecified), 0.849. The result for `CC(=O)Nc1nc(N2C(=O)c3ccccc3C2=O)n(-c2ccccc2)n1` reads 0.429; that for `COc1cc2c(cc1NC(=O)c1cc(-c3cccnc3)nc3ccc(C)cc13)oc1ccccc12`, -0.138; that for `CCOc1ccc(-c2[nH]nc3c2C(c2cccnc2)C(C#N)=C(N)O3)cc1` (stereo unspecified), -1.45. The compound `COc1cccc(N2CCN(CC(=O)Nc3ccc(SC(F)F)cc3)CC2)c1` had a z-score of -0.228.

The compound `COc1ccc2nc(NC(=O)c3cc(C)oc3C)sc2c1` registered a z-score of 0.104. The result for `COCCNC(=O)Cn1nc(C(F)(F)F)cc1C` reads 0.0117; that for `Cc1cc(N2C(=O)C3C4C=CC(C4)C3C2=O)ccc1Br` (stereo unspecified), -0.201; that for `O=C(NCCN1CCOCC1)[C@H](Cc1ccccc1)N1C(=O)c2ccccc2C1=O`, -0.28. The result for `Nc1nnc(SCCN2C(=O)c3ccccc3C2=O)s1` reads -0.145. The result for `O=S(=O)(CCOc1ccccc1)c1nc2ccccc2[nH]1` reads 0.291; that for `COc1ccc(S(=O)(=O)NCc2ccc(C)cc2)cc1`, -0.0522. Consider `N=c1c(C(=O)NCc2ccco2)cc2c(=O)n3ccccc3nc2n1CC1CCCO1` (stereo unspecified), for which the z-score was determined as 0.0706. The result for `Cc1ccc(C)c(-n2cc[nH]c2=S)c1` reads -0.0322; that for `COc1ccc([C@@H]2[C@H]3C(=O)N(c4cccc(C(F)(F)F)c4)C(=O)[C@H]3ON2C)cc1`, -0.251; that for `CC12CCC(C(=O)Nc3ccccc3-n3cccc3)(CC1=O)C2(C)C` (stereo unspecified), 0.17.

The compound `COc1cccc(NC(=O)CN(C)C(=O)COc2ccc3ccccc3c2)c1` yielded a z-score of -0.0111. With `CC(C)N(CCCNC(=O)CC1Oc2ccccc2NC1=O)Cc1ccccc1` (stereo unspecified), the z-score was 0.44.

As to `O=C(Nc1nnc(CC2=CCCCC2)s1)c1cccs1`, the z-score was -0.848.

Take `O=C(O)CSc1sc(=S)sc1SCC(=O)O`: the z-score is -0.442. Compound `CN(C)S(=O)(=O)c1cccc(NC(=O)CSc2nc3ccccc3n2-c2ccccc2)c1` displayed a z-score of -0.45. The result for `O=C(CSc1ncn(-c2ccccc2)n1)N1CCN(c2ccccc2)CC1` reads -0.143; that for `Cc1cc2ccccc2n1CCNC(=O)C(C)(C)C`, -0.117. The result for `CCOC(=O)C(CC)(CC)C(=O)/C=C/c1cccc(Br)c1` reads 0.00139; that for `CCCCN(Cc1cc2cc(OC)ccc2[nH]c1=O)C(=O)c1ccccn1`, 0.52. `COc1cc(/C=C/C(=O)c2c(O)cc(C)oc2=O)cc(OC)c1O` returned a z-score of -0.527. Next, `Cc1ccc(S(=O)(=O)Nc2nc3ccccc3nc2NCc2ccco2)cc1`: 0.0124; `O=C(OCC(=O)N1CCN(C(=O)c2ccco2)CC1)c1cc(-c2cccc(Br)c2)nc2ccccc12`: -0.679. As to `O=C(CCn1c(=O)sc2ccccc21)Nc1ccon1`, the z-score is -0.246. Next, `CC(=O)Nc1ccc(Oc2ccc3nc(C)[nH]c3c2)cc1`: -0.575; `CCNC(=O)N1c2ccc(OCC)cc2C(C)=CC1(C)C`: 0.273; `COc1cccc(-c2cc(C(=O)NCCc3ccccc3)no2)c1`: -0.175. Next, `COCCSc1nnc(NC(=O)CSCc2ccccc2)s1`: 0.254. The result for `Cc1ccc(C2NC(=O)NC3=C2CCc2ccccc23)cc1` (stereo unspecified) reads -0.891; that for `CCc1c(C)nc(SCCOc2ccc(OC)cc2)[nH]c1=O`, -0.345; that for `CCOC(=O)Cc1csc(NC(=O)CSc2nnc(-c3ccc(OC)cc3)n2C)n1`, 0.0425. `CCCCCCCCCCS(=O)(=O)N/N=C/c1ccc([N+](=O)[O-])cc1` showed a z-score of 0.15. Next, `CCCC(c1nnnn1Cc1cccs1)N1CCN(c2ccc(OC)cc2)CC1` (stereo unspecified): -0.302. Next, `Cc1occc1C(=O)NNC(=S)Nc1ccccc1C(F)(F)F`: 0.0614; `N#CC1=C(N)OC2=C(CC/C2=C\c2ccccc2)C1c1ccccc1` (stereo unspecified): -0.2; `CCCNC(=O)c1cc(OC)c(OC)cc1[N+](=O)[O-]`: -0.0312.

Turning to `COC(=O)C1=CN(C2CC2)C=C(C(=O)OC)C1c1ccccc1OC`, the z-score was -0.00613. `Clc1ccccc1-c1nnc2sc(-c3ccncc3)nn12` displayed a z-score of -0.306. The result for `CNC(=O)CCn1nc(-c2ccc(Cl)cc2)c2ccccc2c1=O` reads -0.0234; that for `Cc1onc(-c2c(Cl)cccc2Cl)c1C(=O)Nc1ccc2c(c1)OCO2`, -0.24; that for `Cc1ccccc1NC(=O)CCN1CCCCCC1`, 0.00359. The result for `COc1ccc(CN(C(=O)c2ccco2)C2CC(C)N(C)CC2C)cc1` (stereo unspecified) reads -0.0429; that for `CCC(=O)Oc1cccc(C(=O)Nc2ccc(-c3nnc(-c4ccco4)o3)cc2)c1`, -0.538; that for `O=C(CSc1nc2cc([N+](=O)[O-])ccc2n1-c1ccc(F)cc1)NC1CCS(=O)(=O)C1` (stereo unspecified), 0.00255. `O=C(Nc1ccc(Cl)c(Cl)c1)Nc1cc(C(=O)NC2CC2)ccc1Cl` came in with a z-score of -0.0443. Next, `Cc1cc(C)c2c(-n3cccc3)c(C(=O)NNS(=O)(=O)c3ccc(F)cc3)sc2n1`: -0.735; `O=C(O)c1ccc(CNc2ccccc2C(=O)O)cc1`: -0.547.

Regarding `O=S(=O)(c1cc(Cl)ccc1Cl)N1CCNCC1`, the z-score is 0.216. The result for `O=C1CCCc2c1cc(C(=O)Nc1ccc(Cl)cn1)c(=O)n2-c1ccccc1` reads -0.114. The result for `O=C(CCc1ccc(S(=O)(=O)N2CCOCC2)cc1)OCc1nc2ccccc2s1` reads 1.18; that for `Cc1nc(N2N=C3/C(=C/c4ccc(F)cc4)CCCC3C2c2ccc(F)cc2)sc1C(=O)N(C)C` (stereo unspecified), -0.199; that for `COc1cc(-c2noc(-c3cccc(Cl)c3)n2)cc(OC)c1OC`, 0.103. The result for `Cc1cccc(NC(=O)Cn2c([N+](=O)[O-])cnc2C)c1C` reads -0.0517. For `CSc1nc(N(C)CCO)c2sc3nc(-c4ccco4)c4c(c3c2n1)CCC4`, the z-score was -0.00823. Next, `CCc1ccc(C(=O)/C=C2\Sc3ccccc3NC2=O)cc1`: -0.113. The result for `Cc1cccc(C(=O)NN2C(=O)C3C(c4ccccc4)C=CC(c4ccccc4)C3C2=O)c1` (stereo unspecified) reads 0.291.

On to `COc1ccc(Cl)cc1C(=O)NC(=S)Nc1cc(-c2nc3ccccc3[nH]2)ccc1C`, for which the z-score was -0.287. On to `CCCCNC(=O)C(=O)c1ccccc1NC(C)=O`, for which the z-score is -0.0152. The result for `C=CCSC1=C(C#N)C(c2ccccc2OCC)CC(=O)N1` (stereo unspecified) reads -0.93; that for `CC(=O)/C=C1\SC(CC(=O)O)C(=O)N1c1ccccc1` (stereo unspecified), 0.00817; that for `COc1ccc(/C=N/N2CCN(C3c4ccccc4-c4ccccc43)CC2)cc1O`, -1.47.

Compound `Cc1ccc(C(=O)Nc2ccc(C(=O)/C=C/c3cccs3)cc2)cc1` returned a z-score of -0.11. The result for `O=C(CNc1ccc2ccccc2c1)N/N=C/c1cc2ccccc2nc1Cl` reads 0.0666.

`CC(C)C(NS(=O)(=O)c1ccc2c(c1)oc(=O)n2C)C(=O)N1CCN(Cc2ccccc2)CC1` (stereo unspecified): the z-score was 0.093. Next, `O=C(CCc1ccccc1)NC(=S)Nc1cccc(Br)c1`: 0.0148; `O=C(NCc1cccs1)c1cc(-c2cccs2)on1`: -0.882; `COc1ccc(S(=O)(=O)/N=C2/C=CC(=O)C(C)=C2C)cc1`: 0.523.

As for `COC(=O)c1[nH]c2cc(OC)ccc2c1NC(=O)CCN1CCN(c2cccc(C)c2C)CC1`, the z-score was determined as 0.556. With `CCOC(=O)N1CCN(C(=O)COc2cccc3c2CCN(Cc2ccccc2C)C3=O)CC1`, the z-score is -0.362.

Regarding `CCN1C(=O)NC(c2cc(Br)ccc2OC)C(C(=O)OC)=C1C` (stereo unspecified), the z-score was found to be 1.19.

`O=C(OCn1nnc2ccccc2c1=O)c1cccnc1Cl` came in with a z-score of 1.51. Next, `O=C(c1ccccc1)N1CCN(C(=O)c2cc3ccccc3o2)CC1`: 0.163; `O=c1oc2cc(O)c(Cl)cc2c2ccccc12`: 1.75; `COC(=O)c1ccc(N=NN2CCOCC2)cc1`: -0.0728.

`O=S(=O)(c1ccc(OCC(O)CN2CCCC2)cc1)N1CCOCC1` (stereo unspecified) registered a z-score of 0.233. The result for `COc1ccc(OC)c(NC(=O)c2cc3ccccc3o2)c1` reads -0.411; that for `Cc1nn(C(=O)C(C)N2C(=O)c3ccccc3C2=O)c(C)c1Br` (stereo unspecified), -0.0805; that for `O=S(=O)(c1cccc2ccccc12)n1nnc2ccccc21`, 0.673. The result for `CCC(CC)NC(=O)COC(=O)CCC(=O)c1cccs1` reads -0.187.

For the compound `O=C(NCCOC(=O)c1ccc(C(=O)OCCNC(=O)c2cccnc2)s1)c1cccnc1`, the z-score is -0.633.

As for `CC(C)CC(=O)O/N=C1\C(=O)N(c2ccccc2)c2ccccc21`, the z-score was -0.502. The result for `COc1ccc(CCNC(=O)Cn2nnc3ccccc3c2=O)cc1` reads 0.0147; that for `O=S1(=O)CC/C(=N\O)c2ccccc21`, -0.0102. Next, `CCOc1ccc(CNc2ccc(N3CCCC3)cc2)cc1`: 0.0796; `Cc1cccc(N(CC(=O)NCc2ccc3c(c2)OCO3)C(=O)CCC(=O)Nc2ccccn2)c1C`: -0.209; `CC1=C(C(=O)Nc2ccccc2C)C(c2ccc(C)o2)n2c(s/c(=C/c3ccccc3)c2=O)=N1` (stereo unspecified): -0.0189. Compound `COc1ccc(OC)c(S(=O)(=O)N2CCN(c3ccccn3)CC2)c1` had a z-score of 0.199. The result for `N#C/C(=C/c1ccc(CNS(=O)(=O)c2ccccc2)o1)C(=O)NCc1ccccc1` reads -0.354. The result for `S=C(NCc1ccco1)N/N=C/c1ccc(Cl)cc1` reads 2.21; that for `Cc1cc(Cl)ccc1OC(C)C(=O)N1CCCN(C(=O)C(C)Oc2ccc(Cl)cc2C)CC1` (stereo unspecified), -0.111. Next, `Cc1ccc(NC(=O)N(Cc2ccco2)Cc2cc3cc(C)cc(C)c3nc2Cl)cc1`: -1.38. For `O=C(CN1CCOc2ccccc21)N1CCC(Cc2ccccc2)CC1`, the z-score was -0.565. The result for `Cc1nnc(NC(=O)CSc2ncnc3c2cnn3-c2ccccc2C)s1` reads -0.117; that for `CC1CCN(c2nc(-c3ccccc3)cc(C(F)(F)F)n2)CC1`, -1.53; that for `Cc1occc1C(=O)NNC1=CC(=O)CC(C)(C)C1`, -0.23. For `Cn1nc(SCC(=O)O)sc1=S`, the z-score turned out to be 0.874. The result for `CCOc1ccc(N(CC(=O)NCC2CCCO2)S(=O)(=O)c2ccc(SC)cc2)cc1` (stereo unspecified) reads -0.928. Next, `O=C(CSc1ncnc2c1oc1ccccc12)Nc1cccc(Cl)c1`: -0.596.

`Cc1ccc(C)c(OCC(=O)Nc2cccc(C(=O)O)c2)c1C` came in with a z-score of -0.343. The result for `COc1ccc(Nc2nc(N)nc(C(F)(F)F)n2)c(OC)c1` reads 0.842; that for `O=C(NNC(=O)c1cccnc1)Nc1ccc([N+](=O)[O-])cc1`, 0.0611; that for `COc1ccc(NC(=O)C(CCS(C)(=O)=O)NC(C)=O)cc1` (stereo unspecified), 0.701.

Source of the values: PubChem BioAssay AID488969 (Vanderbilt High Throughput Screening Facility, 2010).
